Results on 56 sequences are retold here after the supplement of paper PMC11417369.

± gives the standard deviation of the averaged measurements. This is one part of the list.

The subject of this assay is PfAP2-I AP2 domain 3 (GST-tagged). Kind of assay: gcPBM binding intensity (ln(normalized median fluorescence intensity)); higher = stronger DNA binding. In short, it runs like this: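 Plasmodium falciparum DNA-binding domains carrying a GST tag were expressed in E. coli and applied for 1 h, at about 25 μg on average, to an Agilent 4 × 180k array. The array held primer-extended double-stranded 36-bp intergenic genomic probes together with negative controls, and binding took place in 1× PBS with 1% milk, 0.2 mg/ml BSA, 0.5% salmon testes DNA and 0.03% Triton X-100. An Alexa488 anti-GST antibody detected bound protein, and the array was scanned at 488 nm. Binding intensity is taken as the highest Masliner-normalised natural-log median intensity across replicate spots of either probe orientation.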
For the sequence “ATATTTTTCCAACATCGTACATTATGAGTCAAAATT [XGTACX_site993]”, the “gcPBM binding intensity (ln)” value stood at 8.08 ± 0.54.
“CCCATATTATAGGTGTGTACATAAAAGTATATATAA [XGTACX_site3629]”: the “gcPBM binding intensity (ln)” value came to 8.03 ± 0.57.
As to “AGAAGAAATATGTAAAAAATTTTATATTCACACACA [GTGCAC_negctrl_site441]”, the “gcPBM binding intensity (ln)” value is 8.15 ± 0.33.
Take “AATTTAATTTTTTCGTGTACTTATATAGGAGGTTTT [XGTACX_site8310]”: the “gcPBM binding intensity (ln)” value stood at 7.93 ± 0.66.
As to “CAATTAAAGATATGAACACACATGTGAACTTTCTAT [CACACA_site7796]”, the “gcPBM binding intensity (ln)” value is 7.43 ± 0.68.
As to “TTTCTTATCAACCTTTTTTTTTTTTTTTTATTCTTA [TGCATGCA_negctrl_site162]”, the “gcPBM binding intensity (ln)” value is 7.43 ± 0.73.
Under “TTTATATATAATGTTGCATGTCAAATTTGTATATGG [TGCATGCA_site246]” stands 7.77 ± 0.57; under “TGTTCTTATACTAATAGTACTTTTAGGTACTATAAA [XGTACX_site2954]”, 7.6 ± 0.44.
In the case of “TGTAGACATTAATGTAGTACAATATATATATATATT [XGTACX_site8608]”, the “gcPBM binding intensity (ln)” value amounted to 7.92 ± 0.43.
For the sequence “AAAAAAAAAAAAAAAACACACATACCCATATATTTT [CACACA_site6013]”, the “gcPBM binding intensity (ln)” value was found to be 8.78 ± 0.54.
Regarding ATGATATGCAATTTAGTGCATAACAAAATTGGTATA, the “gcPBM binding intensity (ln)” value was found to be 10.9 ± 0.49.
As to “TTGTGTAAATGTTAAGTGCATTTGGTAAAATATAAA [GTGCAC_site9699]”, the “gcPBM binding intensity (ln)” value stood at 9.51 ± 0.11.
In the case of “TTTTTCTTTTTTTGGGGTACAGGGAAATCTATATTT [XGTACX_site7025]”, the “gcPBM binding intensity (ln)” value amounted to 8.35 ± 0.5.
Consider “TCTTAATTTTTGAAGGTACACACTAATATATTAAAT [CACACA_site1191]”, for which the “gcPBM binding intensity (ln)” value was determined as 7.94 ± 0.33.
Take “TGTGTATACTTGTGTATACCAAATTAAAGACGCTTT [CACACA_negctrl_site1359]”: the “gcPBM binding intensity (ln)” value was 7.42 ± 0.67.
Turning to “AAAAAATAAAAAAGGTGGTCATGTCACAAATACTTT [XGTACX_site7454]”, the “gcPBM binding intensity (ln)” value was 8.03 ± 0.57.
On to “TAAAAGTGATATGTTCGTACGTATTTATATGTAATA [XGTACX_site211]”, for which the “gcPBM binding intensity (ln)” value was 7.72 ± 0.48.
On to “TCTCCATCTTATGAGACATGCACTTTTTATTTAATA [TGCATGCA_site121]”, for which the “gcPBM binding intensity (ln)” value amounted to 8.35 ± 0.64.
On to “GTATATATATATATATATATATATATATATATATAT [CACACA_negctrl_site609]”, for which the “gcPBM binding intensity (ln)” value turned out to be 9.12 ± 0.59.
Turning to “ATATATGCATATATATGTACATATATATATATATAT [XGTACX_site7403]”, the “gcPBM binding intensity (ln)” value turned out to be 9.09 ± 0.4.
Take “AATAAATAAAAAATTACACACATATATATAAATATA [CACACA_site3434]”: the “gcPBM binding intensity (ln)” value came out at 7.58 ± 0.25.
Under “TAAATTATAAATTGCACACATATTTTTATATTTATA [CACACA_site2976]” stands 8.47 ± 0.16.
In the case of “ATATTTTTAGATTCAGAAAAAAGATTCAACTTACTC [CACACA_negctrl_site1357]”, the “gcPBM binding intensity (ln)” value came out at 7.52 ± 0.47.
Under “TATTTCATATGAAGAAGTACTATTAATAATTTCCTT [XGTACX_site6587]” stands 7.66 ± 0.38; under “TTCTTTTTTCGACACACACACACAAGAAGATATATA [CACACA_site7456]”, 8.44 ± 0.3; under “ATATATATATATAATACACACTTATGAAATGTCTAA [CACACA_site5077]”, 9.18 ± 0.33.
Consider “TTAATACATACATTCACACACACTAATTGTATATTT [CACACA_site9362]”, for which the “gcPBM binding intensity (ln)” value was determined as 8.06 ± 0.55.
Regarding “ATACGAATAAATTTCGCATGCAGCATATATATCAAT [TGCATGCA_site612]”, the “gcPBM binding intensity (ln)” value was 7.8 ± 0.62.
Take “TGTACAAATATGTTGAAAATAAAATTTCAATATATT [XGTACX_negctrl_site13]”: the “gcPBM binding intensity (ln)” value was 7.37 ± 0.7.
On to “AACGAAAATAAGAAAAGTACAAAAAATACCAAATAA [XGTACX_site6171]”, for which the “gcPBM binding intensity (ln)” value was found to be 7.96 ± 0.74.
Regarding “ATATATATATATATATGTACATATATATTGTTGATC [XGTACX_site8893]”, the “gcPBM binding intensity (ln)” value stood at 9.54 ± 0.63.
For the sequence “ATTTAATTCGTACATACACACGCACATATATATATA [CACACA_site8415]”, the “gcPBM binding intensity (ln)” value stood at 9.38 ± 0.11.
For “ACATATTATTCAAGTGCACACTTTATATTTATGATT [CACACA_site3295]”, the “gcPBM binding intensity (ln)” value is 9.715 ± 0.035.
Regarding “AAAAAAAAACAGAAAACACACAAATTATCTTAGAAT [CACACA_site309]”, the “gcPBM binding intensity (ln)” value amounted to 7.49 ± 0.73.
Take “TACAATAATGATTGTTGTACATTATTGATATTTAAA [XGTACX_site2940]”: the “gcPBM binding intensity (ln)” value is 7.47 ± 0.23.
The result for TTTAATTTTTAATCAGTGCAATATTATATAATATAT reads 10.5 ± 0.57; that for “TATATGAAATATTATGCACACAATATATAATATGAT [CACACA_site936]”, 9.86 ± 0.59.
“AATAATTCATCATATGCACACACAATACCAAAATGT [CACACA_site7945]”: the “gcPBM binding intensity (ln)” value was 8.69 ± 0.37.
Take “TCATTTTAATTAAAAGTGCAAAAAATAATATAACTA [GTGCAC_site9968]”: the “gcPBM binding intensity (ln)” value came out at 9.9 ± 0.18.
“ATTAATTCGTTTTGTACACACATAATGAATAATTTA [CACACA_site2235]”: the “gcPBM binding intensity (ln)” value came to 7.73 ± 0.41.
As for “CAAAAATAATAGAATACATGCAAAAATAAATGTATA [TGCATGCA_site196]”, the “gcPBM binding intensity (ln)” value turned out to be 7.59 ± 0.71.
Under “TTTTTTTTTAAAACATAATAAAAAATAAAACAACCT [GTGCAC_negctrl_site92]” stands 8.32 ± 0.34; under “ATAATATATTTAATCATACACACATTTATGTACCTA [CACACA_site1719]”, 7.7 ± 0.57; under “AAAAATAAAGGGTGTGCACACAAAAATATATATATA [CACACA_site1727]”, 9.8 ± 0.14.
For “TAATGACAATAAAAATAAATAAATAAAAAAAAAAAA [TGCATGCA_negctrl_site321]”, the “gcPBM binding intensity (ln)” value was determined as 7.89 ± 0.92.
The result for “AATAAATAAATAAATAAATAAATATATATATATATA [GTGCAC_negctrl_site330]” reads 9.23 ± 0.49; that for “ATATATTATCTGTACACACACATATAAGGGATTATA [CACACA_site4180]”, 8.19 ± 0.35.
On to “AAGAAAATAAAAAGGTAAATATGTATAAATAAATAA [TGCATGCA_negctrl_site88]”, for which the “gcPBM binding intensity (ln)” value is 7.51 ± 0.83.
“TGAAATAAAATTATTTGTACATATCGGAAAAAAAAA [XGTACX_site7131]”: the “gcPBM binding intensity (ln)” value turned out to be 7.87 ± 0.61.
Turning to “TTTTTTGAAAATAAATGTACGAATTTTATATTTAAA [XGTACX_site2768]”, the “gcPBM binding intensity (ln)” value was 7.58 ± 0.31.
Turning to “AAGGCATATATAATTTGTACATATTAAGAATTAGAT [XGTACX_site8660]”, the “gcPBM binding intensity (ln)” value came out at 8 ± 0.54.
The result for “AAATTACCCATCCATACACACATATTTTTTTTAATT [CACACA_site2189]” reads 7.96 ± 0.64.
The result for “GATACAGATGGACACACACACATACATAAATACATA [CACACA_site5833]” reads 8.13 ± 0.28.
As to “TAAATATATTTATAAGCACACACTAATAAACCCACA [CACACA_site390]”, the “gcPBM binding intensity (ln)” value is 8.84.
With “AATTTTTATACGGATACACACAAAAAAAAATAAAAA [CACACA_site897]”, the “gcPBM binding intensity (ln)” value was 7.89 ± 0.54.
For the sequence “AAAATATATTATTATTGTACATATATTTTCATTTAC [XGTACX_site4593]”, the “gcPBM binding intensity (ln)” value came out at 8.15 ± 0.13.
